# Experimental data as given in patent publication US8822645B2, “Prostaglandin E2 dual variable domain immunoglobulins and uses thereof” (AbbVie Inc., priority 2008, dated 2014).
# Columns and labels:
# [1] = PGE2-biotinamide ELISA (PGE2 binding)
# Protocol: Enzyme linked immunosorbent assays to screen for anti-PGE2 antibodies or anti-PGE2 containing DVD-Ig molecules that bind prostaglandin E2 were performed as follows. ELISA plates (Costar 3369, Corning, N.Y.) were coated with 50 μl of anti-host Fc IgG (Sigma, St. Louis, Mo.) at 2 μg/ml in PBS (Invitrogen Carlsbad, Calif.). Following an overnight incubation at 4° C., the plate was blocked with 200 μl Superblock (Pierce #37535, Rockford, Ill.). […] Plates were read at 450 nm on a Molecular Devices Spectramax plate reader (Sunnyvale, Calif.). EC50 was determined using GraphPad Prism 5 (GraphPad Software, La Jolla, Calif.) (FIG. 2).
# ELISA plates (Costar 3369, Corning, N.Y.) were coated with 50 μl of anti-host Fc IgG (Sigma, St. Louis, Mo.) at 2 μg/ml in PBS (Invitrogen, Carlsbad, Calif.). […] Plates were read at 450 nm on a Molecular Devices Spectramax plate reader (Sunnyvale, Calif.). EC50 was determined using GraphPad Prism 5 (GraphPad Software, La Jolla, Calif.).
# [2] = test system: PGE2 / human EP4 receptor in HEK293 Gα16 cells; test: EP4 bioassay (Ca++ flux, neutralization of PGE2); type: cell-based
# Protocol: The ability of anti-PGE2 antibodies and anti-PGE2 containing DVD-Ig molecules to inhibit the cellular response of PGE2 was determined in a Ca++ flux assay in HEK293 Gα16 cells stably transfected with human EP4 receptor. Cells were plated in black/clear poly-D-lysine plates, (Corning #3667, Corning, N.Y.) and incubated with Ca++-sensitive dye (Molecular Devices) for 90 minutes. Stock PGE2 (in 200 proof ethanol) was diluted with FLIPR buffer (containing 1×HBSS (Invitrogen, Carlsbad, Calif.), 20 mM HEPES (Invitrogen, Carlsbad, Calif.), 0.1% BSA (Sigma, St. Louis, Mo.) and 2.5 mM Probenecid (Sigma, St. Louis, Mo.)). […] A dose response of PGE2 was done by a serial titration of PGE2 and was determined using FLIPR1 or Tetra (Molecular Devices). EC50 was determined using GraphPad Prism 5 (GraftPad Software, La Jolla, Calif.). […] Ca++ flux was monitored using FLIPR1 and data was analyzed using GraphPad Prism 5.
# The ability of anti-PGE2 antibodies and anti-PGE2 containing DVD-Ig molecules to inhibit the cellular response of PGE2 was determined in a Ca++ flux assay using stably transfected human EP4 in HEK293 Gα16 cells. […] A dose response of PGE2 was done by a serial titration of PGE2 and was determined using FLIPR1 or Tetra (Molecular Devices). EC50 was determined using GraphPad Prism 5. […] Ca++ flux was monitored using FLIPR1 and data was analyzed using GraphPad Prism 5.
"EC50 ([1]; PGE2 VD in C-terminal position, read-out: Direct Bind ELISA C-terminal VD EC50) [nM]","EC50 ([1]; PGE2 VD in N-terminal position, read-out: Direct Bind ELISA N-terminal VD EC50) [nM]",Molecule,"EC50 ([2]; PGE2 VD in C-terminal position, read-out: C-terminal VD PGE2 Neutralization EC50) [nM]","EC50 ([2]; PGE2 VD in N-terminal position, read-out: N-terminal VD PGE2 Neutralization EC50) [nM]"
1.55,–,DVD156: DVD-Ig construct listed in Table 4 (antibody) VH: EVQLVESGGGLVQPGGSLRLSCAASGFTFSNYWMNWVRQAPGKGLEWVAAINQDGSEKYYVGSVKGRFTISRDNAKNSLYLQMNSLRVEDTAVYYCVRDYYDILTDYYIHYWYFDLWGRGTLVTVSSASTKGPEVQLVQSGAEVKKPGASVKVSCKASGYTFTKYWLGWVRQAPGQGLEWMGDIYPGYDYTHYNEKFKDRVTLTTDTSTSTAYMELRSLRSDDTAVYYCARSDGSSTYWGQGTLVTVSS VL: [about 100 residues not written out]RTVAAPDVLMTQTPLSLPVTPGEPASISCTSSQNIVHSNGNTYLEWYLQKPGQSPQLLIYKVSNRFSGVPDRFSGSGSGTDFTLKISRVEAEDVGVYYCFQVSHVPYTFGGGTKVEIKR,0.025,–
–,1.44,DVD155: DVD-Ig construct listed in Table 4 (antibody) VH: EVQLVQSGAEVKKPGASVKVSCKASGYTFTKYWLGWVRQAPGQGLEWMGDIYPGYDYTHYNEKFKDRVTLTTDTSTSTAYMELRSLRSDDTAVYYCARSDGSSTYWGQGTLVTVSSASTKGPEVQLVESGGGLVQPGGSLRLSCAASGFTFSNYWMNWVRQAPGKGLEWVAAINQDGSEKYYVGSVKGRFTISRDNAKNSLYLQMNSLRVEDTAVYYCVRDYYDILTDYYIHYWYFDLWGRGTLVTVSS VL: DVLMTQTPLSLPVTPGEPASISCTSSQNIVHSNGNTYLEWYLQKPGQSPQLLIYKVSNRFSGVPDRFSGSGSGTDFTLKISRVEAEDVGVYYCFQVSHVPYTFGGGTKVEIKRTVAAP[about 100 residues not written out],–,0.023

# Read-outs that look alike come from different tables or passages of the source.
